Test results: PubChem BioAssay AID485360 (National Center for Advancing Translational Sciences (NCATS), 2010)
Where “and” joins values, the source holds several entries; their conditions need not be identical. Identical values can stand only once. About 1,500 (0.65%) of roughly 230,000 compounds were called active. Inconclusive means that the source gave no clear call. Such entries were picked first, then a sample of the others. Calls follow the shape of the dose curve; as a rule, active = well fitted inhibition curve with a large enough effect; inconclusive = small, poorly fitted or top-dose-only effect; inactive = no such curve, though single readings can be large or run the other way. Where the call is inconclusive, the potency comes from a doubtful curve fit.
% is scaled to controls: 0 for no effect and ±100 for the full control effect; potency is read from the fitted curve at half-maximal effect; tags tell the direction and shape of the fitted curve.
Also: nearly all actives have a fitted effect of over 60% in size.

The compounds below were run against Lethal(3)malignant brain tumor-like protein 1 (Homo sapiens) (UniProt Q9Y468) (assay: qHTS Assay for the Inhibitors of L3MBTL1). Details: AlphaScreen L3MBTL1–H3K9me1 peptide binding; activity, negative = inhibition: at 57.1 µM (top of the series).
Chain of UniProt Q9Y468 (Q9Y468 whole entry, looked up): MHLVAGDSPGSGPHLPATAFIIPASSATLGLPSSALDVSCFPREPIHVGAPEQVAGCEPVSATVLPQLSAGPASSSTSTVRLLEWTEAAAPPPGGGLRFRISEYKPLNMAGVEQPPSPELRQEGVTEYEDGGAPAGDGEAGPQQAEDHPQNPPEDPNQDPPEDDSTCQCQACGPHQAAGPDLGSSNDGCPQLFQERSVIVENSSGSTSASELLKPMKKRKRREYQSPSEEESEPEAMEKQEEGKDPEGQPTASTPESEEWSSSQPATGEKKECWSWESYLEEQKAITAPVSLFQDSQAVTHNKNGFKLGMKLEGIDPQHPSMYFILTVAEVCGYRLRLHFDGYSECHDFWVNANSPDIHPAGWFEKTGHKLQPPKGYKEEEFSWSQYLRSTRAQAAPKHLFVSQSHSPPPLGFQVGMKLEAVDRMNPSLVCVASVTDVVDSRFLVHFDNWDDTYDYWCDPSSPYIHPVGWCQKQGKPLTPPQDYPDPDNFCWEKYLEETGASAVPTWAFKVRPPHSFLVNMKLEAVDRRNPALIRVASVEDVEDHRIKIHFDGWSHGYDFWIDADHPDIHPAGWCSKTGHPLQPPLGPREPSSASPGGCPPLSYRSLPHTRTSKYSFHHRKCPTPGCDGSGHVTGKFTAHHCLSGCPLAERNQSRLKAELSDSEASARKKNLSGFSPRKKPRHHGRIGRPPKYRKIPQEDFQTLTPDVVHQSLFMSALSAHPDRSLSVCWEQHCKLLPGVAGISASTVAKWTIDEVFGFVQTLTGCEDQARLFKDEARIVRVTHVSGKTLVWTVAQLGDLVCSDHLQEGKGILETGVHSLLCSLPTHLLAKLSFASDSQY
Outline: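 AlphaScreen assay: L3MBTL1 (50 nM final) was preincubated 30 min at room temperature with biotinylated H3(1-15)K9me1 peptide (75 nM final), then 30 min with library compounds; streptavidin donor and nickel chelate acceptor beads (10 ug/mL final) added, 30 min dark.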
With `O=c1oc(-c2cccc(S(=O)(=O)N3CCOCC3)c2)nc2ccccc12` the Potency was inconclusive: 6.31 µM [inhibitor, single point].
For `COc1ccc(-c2c(-c3cc(OC)cc(OC)c3)n(C)c3ccc(-c4ccc(S(N)(=O)=O)cc4)cc23)cc1`, the Potency was “inactive”.
For `CCc1ccccc1OCCCN1CCCC1`, the Potency was inconclusive: 28.2 µM [inhibitor, partial curve].
`O=C(Nc1ccc(Cl)cc1)OCCn1nnnc1C(c1ccccc1)N1CCOCC1` (centres undefined) was tested, and the activity, negative = inhibition was inactive: -1.94% [at 11.4 µM].
`Oc1ccc(/C=N/NC(=S)N2CCOCC2)cc1` was tested, and the Potency was “inactive”.
For `CCOc1ccc(CCNC(=O)c2oc3c(c2C)-c2[nH]ncc2CC3)cc1OCC`, the Potency was inconclusive: 39.8 µM [inhibitor, single point].
`COc1ccccc1N1CCN(c2ccc(-c3ccccc3)nn2)CC1` was tested, and the Potency was “inactive”.
In the case of `Oc1c(CNc2ccccc2)cc(COCc2ccccc2)c2cccnc12`, the Potency is reported as inconclusive: 25.1 µM [inhibitor, single point] and inconclusive: 31.6 µM [inhibitor, single point].
With `Oc1cc(Nc2ccc(N3CCCCC3)cc2)cc2cccnc12` the Potency was inconclusive: 31.6 µM [inhibitor, single point].
In the case of `Cc1cc(C)nc(NS(=O)(=O)c2ccc(NC(=O)c3ccc(S(=O)(=O)N4CC(C)OC(C)C4)cc3)cc2)n1` (centres undefined), the Potency is reported as “inactive”.
`COc1ccc(C)cc1Nc1n[n+](-c2ccccc2)c(-c2c(Cl)cccc2Cl)s1` was tested, and the Potency was inconclusive: 31.6 µM [inhibitor, single point].
For `O=C(COC(=O)c1ccccn1)NCCc1ccc(Cl)cc1`, the Potency was “inactive”.
With `CCc1cc2c(=O)n(Cc3ccco3)c(SCC(=O)N(C)C3CCS(=O)(=O)C3)nc2s1` (centres undefined) the Potency was inconclusive: 39.8 µM [inhibitor, single point].
`CS(=O)(=O)N1N=C(c2ccco2)CC1c1ccccc1` (centres undefined) was tested, and the Potency was inconclusive: 39.8 µM [inhibitor, single point].
In the case of `CC(=O)c1ccc2c(c1)C1C=CCC1C(c1cc3c(cc1Br)OCO3)N2` (centres undefined), the Potency is reported as inconclusive: 20 µM [inhibitor, partial curve].
In the case of `COc1cc(NC(=O)CCCC(=O)OCC(F)(F)C(F)F)nc(OC)n1`, the Potency is reported as inconclusive: 35.5 µM [inhibitor, partial curve].
`O=[N+]([O-])c1ccccc1NC(=S)N/N=C/c1ccc(O)c(O)c1` was tested, and the Potency was inconclusive: 14.1 µM [inhibitor, partial curve].
In the case of `O=C(NC(=S)N1CCN(c2ccc(Cl)cc2[N+](=O)[O-])CC1)c1cccs1`, the Potency is reported as inconclusive: 39.8 µM [inhibitor, single point].
In the case of `CC(=O)N1CSCC1C(=O)NNS(=O)(=O)c1ccccc1` (centres undefined), the Potency is reported as “inactive”.
For `Nc1nc(-c2nc3ccccc3[nH]2)cs1`, the Potency was “inactive”.
`Cc1cc(=O)[nH]c(SCc2cccc(Br)c2)n1` was tested, and the Potency was inconclusive: 6.31 µM [inhibitor, single point].
In the case of `CCOC(=O)CCCCC(=O)c1[nH]c(=O)[nH]c1CSc1nc2ccccc2[nH]1`, the Potency is reported as active: 12.6 µM.
With `CCn1c2ccccc2c2nnc(SCC(=O)NC3CCS(=O)(=O)C3)nc21` (centres undefined) the Potency was “inactive”.
For `C#CC(C)(CC)NC(=O)c1cc2cccc(CC=C)c2oc1=O` (centres undefined), the Potency was inconclusive: 0.126 µM [inhibitor, full curve, poor fit].
In the case of `CC(C)(C)N1C(=O)Cc2c1nc(N)c1c(N)nc(N3CCCCC3CO)c(C#N)c21` (centres undefined), the Potency is reported as inconclusive: 2.24 µM [inhibitor, full curve].
In the case of `CC1CN(C)C(C)C/C1=N/Oc1ccccc1[N+](=O)[O-]` (centres undefined), the Potency is reported as inconclusive: 22.4 µM [inhibitor, single point].
`Oc1ccc(NCc2ccccc2OCc2ccccc2F)cc1` was tested, and the Potency was inconclusive: 25.1 µM [inhibitor, partial curve].
`CCOC(=O)c1c(C)[nH]c(C)c1C(=O)COC(=O)c1ccc([N+](=O)[O-])s1` was tested, and the Potency was inconclusive: 35.5 µM [inhibitor, single point].
With `O=C(c1ccc(S(=O)(=O)NCC2CCCO2)cc1)N1CCc2ccccc21` (centres undefined) the activity, negative = inhibition was inactive: -10.8% [at 11.4 µM].
With `Cc1noc(C)c1CSCC(=O)Nc1nc2c(F)cc(F)cc2s1` the Potency was inconclusive: 39.8 µM [inhibitor, single point].
`CCOC(=O)N1CCN(c2cc(C)nc3nc(C)nn23)CC1` was tested, and the Potency was inconclusive: 5.01 µM [inhibitor, single point].
`COc1cccc2sc3ccc(C#CC4(N)CCCCC4)cc3c(=O)c12` was tested, and the Potency was “inactive”.
For `CCOc1ccc(S(=O)(=O)NCc2cccs2)cc1C(C)C`, the Potency was “inactive”.
For `Cc1ccc(N2C(=O)c3ccc(C(=O)N4CCN(c5ccccc5F)CC4)cc3C2=O)cc1`, the Potency was inconclusive: 39.8 µM [inhibitor, single point].
With `O=C(COc1ccccc1[N+](=O)[O-])Nc1ccccc1N1CCCC1` the Potency was inconclusive: 20 µM [inhibitor, single point].
For `CCOc1ccc(NC(=O)CSc2nnc(COc3c(C)cccc3C)o2)cc1`, the Potency was inconclusive: 39.8 µM [inhibitor, single point].
For `COc1cccc(NC(=O)C2CC(=O)n3cnnc3S2)c1` (centres undefined), the Potency was “inactive”.
For `O=C(Nc1nc(-c2ccc(-c3ccccc3)cc2)cs1)C1=COCCO1`, the Potency was inconclusive: 35.5 µM [inhibitor, single point].
With `CCN(CC)c1ccc(NC(=O)COc2ccc(N(C)S(=O)(=O)c3cccs3)cc2)cc1` the Potency was inconclusive: 39.8 µM [inhibitor, single point].
For `Oc1cc(NCc2ccccc2)cc2cccnc12`, the Potency was inconclusive: 28.2 µM [inhibitor, single point].
In the case of `COc1ccc(C2c3[nH]c4ccccc4c3CCN2CCCn2cccn2)cc1C` (centres undefined), the Potency is reported as inconclusive: 15.8 µM [inhibitor, partial curve].
`COC(=O)C(F)(F)Sc1c(C)[nH]c2ccccc12` was tested, and the Potency was inconclusive: 39.8 µM [inhibitor, single point].
With `C/C(=N\NC(=O)c1cccc(N/N=C(\C)c2cc(O)ccc2O)c1)c1cc(O)ccc1O` the Potency was active: 28.2 µM.
With `CC1Cc2ccccc2N1C(=S)NC(=O)C1(C)CC1(Cl)Cl` (centres undefined) the Potency was inconclusive: 22.4 µM [inhibitor, single point].
